# Source: PubChem BioAssay AID504845 (National Center for Advancing Translational Sciences (NCATS), 2011)
# Screen size: about 390,000 compounds; about 150 (0.038%) were called active. Inconclusive results, whose numbers are uncertain, are shown with a selection of clear calls. Calls come from the whole dose curve; as a rule, active = well fitted inhibition curve with a large enough effect; inconclusive = small, poorly fitted or top-dose-only effect; inactive = no such curve, though single readings can be large or run the other way. Potencies of inconclusive entries are doubtful fits and often do not repeat. The source holds several records for some structures; these can differ, active in one and inactive in another.
# Biological target: Regulator of G-protein signaling 4 (Homo sapiens) (UniProt P49798)
# Sequence of UniProt P49798 (P49798 whole entry, looked up): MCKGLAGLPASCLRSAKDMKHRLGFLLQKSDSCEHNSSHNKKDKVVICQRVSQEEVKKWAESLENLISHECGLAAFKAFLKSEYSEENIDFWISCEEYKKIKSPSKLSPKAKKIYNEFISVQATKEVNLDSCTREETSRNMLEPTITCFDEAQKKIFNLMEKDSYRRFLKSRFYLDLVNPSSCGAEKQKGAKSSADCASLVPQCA
# Experiment: Inhibitors of Regulator of G Protein Signaling (RGS) 4: qHTS; note: nearly all actives have a fitted effect of over 75% in size
# Details: Transcreener GDP fluorescence polarization, RGS4-accelerated GTP hydrolysis; series mostly up to 114 µM; activity change, negative = inhibition: at the top concentration
# Method in brief: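 MLSMR compounds (23 nl, pin-transferred) preincubated 10 min at room temperature with a 500nM (2x) first reagent, then RGS4 at 900nM (2x) plus Transcreener GDP mix added; fluorescence polarization (620/688 nm) read before and after 90 min at 30 °C.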
# % is set by controls: 0 for no effect and ±100 for the full control effect; potency is the fitted concentration of half-maximal effect; tags give direction and shape of the fitted curve.
Compound,Potency,"activity change, negative = inhibition"
COC(=O)c1c(-c2cccs2)csc1NC(=O)c1ccc(OC)c(OC)c1,"inconclusive: 31.6 µM [inhibitor, full curve, poor fit]",
Cc1nn(C)cc1CNCc1c(C(=O)N2CCCCC2)nc2c(C)cccn12,"inconclusive: 70.8 µM [inhibitor, single point]",
CCN1C(c2ccccc2)=C(c2ccccc2)S/C1=C/C=C1\SC(=S)N(C)C1=O,"inconclusive: 44.7 µM [inhibitor, partial curve, poor fit]",
Cc1oc(-c2cccs2)nc1CS(=O)CC(=O)NC1CCCCCC1 (stereo unspecified),"inconclusive: 50.1 µM [inhibitor, partial curve, poor fit]",
CCn1c2ccccc2c2cc(CNCCCN3CCOCC3)ccc21,,inactive: -2.22%
NCCCN(Cc1ccc(Cl)c(Cl)c1)c1ccccn1,,inactive: -19.1%
CC(C)CC(=O)N1CCC(N2CCN(c3ccccc3)CC2)CC1,"inconclusive: 79.4 µM [inhibitor, partial curve, poor fit]",
COc1ccc(C(=O)c2c(N)sc3c2CCN(C(=O)OC(C)(C)C)C3)cc1,"inconclusive: 100 µM [inhibitor, single point]",
COC(=O)c1sc(NC(=O)c2cccc([N+](=O)[O-])c2)c(C(N)=O)c1C,"inconclusive: 50.1 µM [inhibitor, partial curve, poor fit]",
CCOC(=O)c1sc(=S)n(C)c1NC(=O)c1ccc(F)cc1,"inconclusive: 56.2 µM [inhibitor, partial curve, poor fit]",
CCC(C)(C(=O)NC1CCCCC1)N(C(=O)C1CCC(=O)N1)c1ccc(C)cc1 (stereo unspecified),"inconclusive: 70.8 µM [inhibitor, partial curve, poor fit]",
COc1ccc(C(C)=O)cc1CC(=O)N(Cc1ccccc1)c1ccccc1,"inconclusive: 44.7 µM [inhibitor, partial curve, poor fit]",
CC[C@H](NC(C)C)[C@H](O)c1ccc(O)c2[nH]c(=O)ccc12,active: 23.8 µM,
CC(C)Cn1cnc2c(c(-c3ccccc3)c(-c3ccccc3)n2Cc2ccco2)c1=N,,inactive: -29.2%
CCN(CC)CCNC(=O)CCCNC(=O)Cn1cnc2sc(C)c(C)c2c1=O,"inconclusive: 100 µM [inhibitor, single point]",
Cc1ccccc1N1C(=O)c2cc(S(N)(=O)=O)c(Cl)cc2NC1C (stereo unspecified),"inconclusive: 37.6 µM [inhibitor, single point]",
COc1cccc(C2=NOC(C(=O)Nc3cccnc3Cl)C2)c1 (stereo unspecified),,inactive: -16.5%
O=C(CCC1CCCC1)Nc1ccc([N+](=O)[O-])cn1,,inactive: 5.6%
Cc1ccc2c(c1)C(=O)C(=O)N2CCCOc1ccccc1,"inconclusive: 79.4 µM [inhibitor, single point]",
Cc1ccc(NC(=O)c2sc3nc[nH]c(=O)c3c2C)cc1Cl,,inactive: -26.4%
COc1cc(/C=N/Nc2nc(=O)[nH]nc2C)cc(OC)c1O,"inconclusive: 50.1 µM [inhibitor, partial curve, poor fit]",
COc1ccc(CCNC(=O)/C=C/c2ccco2)cc1OC,"inconclusive: 50.1 µM [inhibitor, partial curve, poor fit]",

Compound,Potency,"activity change, negative = inhibition"
CCn1cc(C(=O)NCCc2ccc(OC)c(OC)c2)c(=O)c2cc(S(=O)(=O)N3CCC(C)CC3)ccc21,,inactive: -3.84%
CCOc1ccc(-n2c(SCC(=O)N3CCCCCC3)nc3c([nH]c4ccccc43)c2=O)cc1,,inactive: -35.1%
C=CCOc1ccc(-c2nc3c(c(=O)[nH]c(=O)n3CCCC)n2C)cc1OC,"inconclusive: 31.6 µM [inhibitor, full curve, poor fit]",
Cc1n[nH]c(=O)c2c(NC(=O)COC(=O)c3cccc(OC(F)F)c3)oc(C)c12,"inconclusive: 89.1 µM [inhibitor, single point]",
COc1cc(CCN2C(=O)c3cccc4cccc(c34)C2=O)c(S(=O)(=O)NCCCO)cc1OC,"inconclusive: 89.1 µM [inhibitor, single point]",
Fc1ccccc1Nc1nc(Cl)nc(Cl)n1,"inconclusive: 28.2 µM [inhibitor, full curve, poor fit]",
Cc1ccc2nc(Cl)cc(=O)n2c1,"inconclusive: 100 µM [inhibitor, single point]",
CCc1nnc(NC(=O)c2cc(-c3ccco3)nc3ccccc23)s1,"inconclusive: 39.8 µM [inhibitor, partial curve, poor fit]",
O=C1CN(C(=O)COC(=O)[C@@H]2CCCN2S(=O)(=O)c2ccc(Cl)cc2)c2ccccc2N1,,inactive: -9.22%
COc1ccc(CCNC(=O)c2nnn(CC(=O)Nc3ccc(C)cc3C)c2N)cc1OC,"inconclusive: 50.1 µM [inhibitor, partial curve, poor fit]",
Cc1cccc2cc(CN(CCN3CCCC3)C(=O)NC3CCCCC3)c(=O)[nH]c12,"inconclusive: 100 µM [inhibitor, single point]",
CC1CCC2(CC1)NC(=O)N(CC(=O)N1CC(C)CC(C)C1)C2=O (stereo unspecified),,inactive: -23.2%
O=C(N/N=C/c1sc2ccccc2c1O)c1cccc2ccccc12,,inactive: -11.4%
[O-]c1c[n+](-c2ccc(-[n+]3cc([O-])on3)cc2)no1,"inconclusive: 39.8 µM [inhibitor, full curve, poor fit]",
O=C(COc1ccccc1F)Nc1nc(-c2ccccn2)cs1,"inconclusive: 44.7 µM [inhibitor, partial curve, poor fit]",
O=S(=O)(CCSc1ccccn1)c1nc2ccccc2s1,"inconclusive: 10 µM [inhibitor, full curve, poor fit]",
COC(=O)C(NC(=O)CNS(=O)(=O)c1ccc(Br)cc1)c1ccccc1 (stereo unspecified),"inconclusive: 50.1 µM [inhibitor, partial curve, poor fit]",
COc1ccc(C(=O)Nc2nnc(Cc3ccc(OC)c(OC)c3)s2)c(OC)c1,"inconclusive: 20 µM [inhibitor, full curve, poor fit]",
CCCCNC(=O)O[C@@H]1C[C@@H]2CCN3C(=O)CCC[C@H]([C@H]1CC)[C@H]23,"inconclusive: 50.1 µM [inhibitor, partial curve, poor fit]",
CCCCN(C)C(=O)c1nc2ccccn2c1CNCCCn1ncc2ccccc21,,inactive: 23.2% [at 11.4 µM]
Clc1ccc2nc(CSc3nnc(-c4c[nH]c5ccccc45)o3)cn2c1,,inactive: -2.09%
O=C(COc1ccc(Cl)cc1Cl)Nc1ccccn1,,inactive: 33%

Compound,Potency,"activity change, negative = inhibition"
CN=c1sc(C(=O)Nc2cccc(Cl)c2)cc(=O)n1C,"inconclusive: 89.1 µM [inhibitor, partial curve, poor fit]",
Cc1ccccc1NC(=O)C(=Cc1ccc(C(=O)O)cc1)C(=O)Nc1ccccc1C,"inconclusive: 17.8 µM [inhibitor, full curve, poor fit]",
O=C(NCCCCCCCN1CCCCCCC1)C(C1CCCCC1)C1CCCCC1,,inactive: -30.2%
COC(=O)c1[nH]c2ccccc2c1NC(=O)CN1CCC(C(N)=O)(N2CCCCC2)CC1,,inactive: -13.5%
Cc1nc2ncnn2c(C)c1CCC(=O)O,"inconclusive: 89.1 µM [inhibitor, single point]",
CC(=O)c1sc(NC(=O)C2CC(=O)N(Cc3ccccc3)C2)nc1-c1ccccc1 (stereo unspecified),,inactive: 13.1%
Cc1ccc(N(C(=O)C(F)(F)F)C(C(=O)NC2CCCCC2)c2ccncc2)cc1C (stereo unspecified),"inconclusive: 28.2 µM [inhibitor, full curve, poor fit]",
O=C(Cn1c(O)c(/C=C2\C=Nc3ccc(Br)cc32)sc1=O)N1CCCC1,"inconclusive: 50.1 µM [inhibitor, single point]",
O=C(N1CCc2cc(S(=O)(=O)NC[C@H]3O[C@@H](n4ccc(=O)[nH]c4=O)[C@H](O)[C@@H]3O)ccc2C1)C(F)(F)F,"inconclusive: 89.1 µM [inhibitor, single point]",
CC(Oc1ccc(F)cc1)C(=O)Nc1ccccc1N1CCCCC1 (stereo unspecified),"inconclusive: 79.4 µM [inhibitor, single point]",
COc1ccc(N2C(=O)c3cc4ccccc4cc3C2=O)cc1,"inconclusive: 35.5 µM [inhibitor, full curve, poor fit]",
CCOC(=O)/C=c1\s/c(=C(\C#N)C(=O)OCC)n(-c2ccccc2)c1=O,"inconclusive: 70.8 µM [inhibitor, partial curve, poor fit]",
COc1ccccc1NC(=O)Cn1ccn(-c2cc(C)cc(C)c2)c(=O)c1=O,,inactive: -9.87%
COc1ccc(NC(=S)NNC(=O)c2nnn(-c3ccccc3)c2C)cc1,"inconclusive: 79.4 µM [inhibitor, partial curve, poor fit]",
O=C1CCC(C(=O)Nc2cccc(C(F)(F)F)c2)N1 (stereo unspecified),,inactive: -0.0965%
Cn1c(=O)c2c(c3ccccc31)OC(C)(C)CC2,"inconclusive: 100 µM [inhibitor, partial curve, poor fit]",
COc1ccc(S(=O)(=O)N[C@@H](C)C(=O)OCC(=O)Nc2cc3oc4ccccc4c3cc2OC)cc1,,inactive: -37.4%
CSc1ccccc1-c1nc(-c2ccncc2)no1,,inactive: -6.5%
CC(C)Cn1c(SCC(=O)NCCCN2CCCC2=O)nc2ccccc21,"inconclusive: 70.8 µM [inhibitor, single point]",
CCC(C)Nc1nc(CN2CCOCC2)nc2sc3c(c12)CCC3 (stereo unspecified),,inactive: -9.36%
CCCCn1c(N)c(N(CCOC)C(=O)CSc2nnc(-c3ccc(C(C)(C)C)cc3)n2N)c(=O)[nH]c1=O,"inconclusive: 100 µM [inhibitor, single point]",
COCc1nnc(NC(=O)C2CCN(C(=O)c3ccco3)CC2)s1,"inconclusive: 50.1 µM [inhibitor, partial curve, poor fit]",
